Measured values published in article PMC12136788.
This is one part of the list.

T1: UNK ZnF1-3 (human, UniProt Q9C0B0 31-174)
T1 sequence: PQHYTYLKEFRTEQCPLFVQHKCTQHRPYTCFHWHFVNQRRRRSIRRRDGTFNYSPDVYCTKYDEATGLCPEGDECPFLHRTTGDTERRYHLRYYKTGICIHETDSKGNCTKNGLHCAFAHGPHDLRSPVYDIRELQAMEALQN

B1: chr7:141438946:141438947:+_ENSG00000106028_ENST00000265304|hu_mus|hu_hu_hu_mus_True|78_108 (ssRNA)
RNA: GGGAGUUCUACAGUCCGACGAUCGACUACCUGUAAUUAACACAGGUCUUCGAAACAUUCUAUUUUCUUUUCUUACAACCUAAUCUUUAGGCUUUUCCUAAAGGAAAGAAAGAAAAGAGAAAAAUGAUAAAUCAAGAAACUACACAACAGAGGAUUGAGCAUCA
B2: chr15:78834838:78834839:+_ENSG00000041357_ENST00000044462|hu_hu|FALSE|FALSE (ssRNA)
RNA: GGGAGUUCUACAGUCCGACGAUCAUCAAGAAGCUUGUGGAUGUUGCGUCUCUCUGCUGCAAGCAAAACACCAUCAUUUGCUAAAAUUCCCAAACAGGUGCCUGCAUGUCCAAUAGCUUCCAUGGCAUAUUCAACUUGGUAUAACAACAGAGGAUUGAGCAUCA
B3: chr6:36759938:36759939:-_ENSMUSG00000029838_ENSMUST00000101534|mus_mus|FALSE|FALSE (ssRNA)
RNA: GGGAGUUCUACAGUCCGACGAUCGGACGACAUUUUUUGGCUUGCAGAGGUCCUCGCUGACUAGCUGGCUGCCUUUGUUGCAAAGUGCGGGCGAGGUUUCUGCAGACUCCAGGUAUCGCUGGCUGAUGCUCCUGCCUGGGCGGCCAACAGAGGAUUGAGCAUCA
B4: chr4:25749455:25749456:-_ENSG00000091490_ENST00000264868|hu_hu|hu_hu_hu_mus_False|38_88 (ssRNA)
RNA: GGGAGUUCUACAGUCCGACGAUCGCACUAUGACCUCUAGAAAAAUCAUUCAAGGAGAAAAAUGUAAACCAAUGUACAAUGUUAUCGCCUUCCCUGUAUUUCCAGGCUUUGUCUCAAGGCUCCUUCUAGCUGCUGGAUUUGGGACAACAGAGGAUUGAGCAUCA
B5: chr5:138700276:138700277:+_ENSG00000120727_ENST00000265192|hu_mus|motif|central (ssRNA)
RNA: GGGAGUUCUACAGUCCGACGAUCUUCCAGCAUUUCUUGGAAACAGCGUUCAAUAAAUUCUUCUUCCCACAACUCCUCUUCGGUUUGUCUGUUGAAUUCCUCUUCAUUUUCCAUCCACAUGUACUCUGCAAAUGGAUUAUCCUCCAACAGAGGAUUGAGCAUCA
B6: chr16:48972413:48972414:-_ENSMUSG00000064061_ENSMUST00000121869|mus_hu|FALSE|FALSE (ssRNA)
RNA: GGGAGUUCUACAGUCCGACGAUCAGGUAAAUCUUCAUCUUCUGUAGGAUCUAUGUCAAACCAAUGGUCAUUUUUGUCUCCAAUUUCUUGUAAGCUUUUAUGAAAUUCUAGCAGUCCUCCAUUAUAUCUCUUUUGAGCACAUCGCAACAGAGGAUUGAGCAUCA
B7: chr10:1038518:1038519:+_ENSG00000107937_ENST00000545048|hu_hu|hu_hu_hu_mus_False|48_68 (ssRNA)
RNA: GGGAGUUCUACAGUCCGACGAUCCAGUCUGUCAUGGUAAUUCUGUUGAGUAAAUUUGACUUUUCUCAUGUAAAAAUGUCGAAUCCGAUGUAUUUGGUAAUGUUUAUGAAUAACCGUUGGAGUCUUUCGUUGAGUCUUGGAUAACAACAGAGGAUUGAGCAUCA
B8: chr14:103803487:103803488:+_ENSG00000100664_ENST00000558506|hu_mus|hu_hu_hu_mus_True|8_78 (ssRNA)
RNA: GGGAGUUCUACAGUCCGACGAUCGAGUUUAUGAUGUGUGUCAAGCAUGCCUCGGUAGCCACAGGCUUUACAAGAAUUACCUAUUGUUUGCUUCUUUGGAUUGACAUGCAGAUCUGUUUCAGGAUUCUCACAUUCAGGACAGAGCAACAGAGGAUUGAGCAUCA
B9: chr7:54825262:54825263:-_ENSG00000132432_ENST00000352861|hu_hu|hu_hu_hu_mus_False|78_98 (ssRNA)
RNA: GGGAGUUCUACAGUCCGACGAUCCUGCCGGCUGGGCACAAACUGCAGCAUUACCUGCAUGACUGCCGUUGGAUGGCGGAUUGAGAGCGUAGAGACACGUAGCUCAGGAGAGAACCGAGCCCAACGGAACCGGAAGCUGGCAACCAACAGAGGAUUGAGCAUCA
B10: 48337146_48368176_1878_3pUTR_ENSG00000102910_ENST00000285737|human|control|control (ssRNA)
RNA: GGGAGUUCUACAGUCCGACGAUCGUCACUGAUAGAUUCAGGUUUUUCAUCUUCUAAGAUGUGUUCUCUGCAACCUUCUCUCUCAGUCACAUCAGAACGGUCCAACUUGGCUUCCUUAUGCUGUCCUUCUGCCACCUUCACGGCCAACAGAGGAUUGAGCAUCA
B11: chr8:117878989:117878990:-_ENSG00000164754_ENST00000297338|hu_hu|hu_hu_hu_mus_True|1_1 (ssRNA)
RNA: GGGAGUUCUACAGUCCGACGAUCCCAGAGGCCCUCGUUUACUGAGGACAAAAUGUGCGUAGAACAUUUUUCUUAUUUGCUAUGAAAUAAGAAGAAACCUGGAUCUCGGCGGGGAGCCGGGAGGGGUGGGUGGCCCGGGGGAGGCAACAGAGGAUUGAGCAUCA
B12: chrX:100668055:100668056:+_ENSG00000126945_ENST00000316594|hu_hu|FALSE|FALSE (ssRNA)
RNA: GGGAGUUCUACAGUCCGACGAUCAAGUUCUACAUAGCUGUGAUCGUAAGCACCCCCACUUGUUCCUGCAGUAGAAUUUAAGAAGAGCUCCACAUAUCUGUGUUGCAUAUUAGCUUUGUCUUUUGCCAUAGCUGCCACAGCAUCCAACAGAGGAUUGAGCAUCA
B13: chr12:39763582:39763583:-_ENSG00000139116_ENST00000544797|hu_mus|hu_hu_hu_mus_False|78_108 (ssRNA)
RNA: GGGAGUUCUACAGUCCGACGAUCCUCUAAGAAUUGGGCAUUCACUUUGAAUUCAGGAGCAGGAAGCCCGUUUUUAAUCGCUGAGGUCUUUUUCUCAUCAAUACUCUUGAACAGGUGUCUAACAGCACGAGAGAUGAUGCCCUGCAACAGAGGAUUGAGCAUCA
B14: chr7:128048437:128048438:+_ENSMUSG00000035064_ENSMUST00000047875|mus_mus|FALSE|FALSE (ssRNA)
RNA: GGGAGUUCUACAGUCCGACGAUCGACACAGCACACAAGUGAAGAUCAGAAGACAACUUGCAGGAGUUUGUUCCCUGCUUCCACGCGUGGGUCCCAAGAACAGAACUCAGAUUGUCAGGUGAGGGUCGGCAGGAGCUUCAUCCACAACAGAGGAUUGAGCAUCA
B15: chr1:29344824:29344825:+_ENSG00000159023_ENST00000356093|hu_hu|motif|central (ssRNA)
RNA: GGGAGUUCUACAGUCCGACGAUCCACGCCAUGGAGUUCUGGGUCGUAGUCUCCCAGUUCAGACUGGAUGGUGUAAGAACCGGAUAAUGCUAAGGUUGCAAAGGAACAGGGCAGACGUCCUGCAACUAUGUCCUGCCGAAGCUGCAACAGAGGAUUGAGCAUCA
B16: chr9:72186818:72186819:+_ENSMUSG00000038535_ENSMUST00000098576|mus_mus|motif|central (ssRNA)
RNA: GGGAGUUCUACAGUCCGACGAUCAGUUUUUAUUUCAGAAAGACGUUCAGAAGUUGGGAUACAAACAGAAACUUGCUCGGCGGGAACUCGGCAAGAAUGAGUUUCAUGCUGACUUAAGUGUGUAGCCAUAUUAUCUAAGCCAGACAACAGAGGAUUGAGCAUCA
B17: chrX:98417731:98417732:-_ENSMUSG00000046032_ENSMUST00000120389|mus_mus|FALSE|FALSE (ssRNA)
RNA: GGGAGUUCUACAGUCCGACGAUCGUUACUGGGCGGCCCGUAAGCGUCGGUCAGGUCUUGGGGCUUCGAGUUAAGGCGCCUAGUGUCAGCCACUGCGGUGUCCGACAUCUUUCCGAAGAAGAGCCCGGUACCGGCGAAGGGGGUCAACAGAGGAUUGAGCAUCA
B18: chr7:103008174:103008175:+_ENSG00000161057_ENST00000292644|hu_mus|FALSE|FALSE (ssRNA)
RNA: GGGAGUUCUACAGUCCGACGAUCACUCAUUGAGCGAGCGUGAAUCUUAAAGAUGUGCGUUCGACCCUCUAAGUCAGGUAAGCUGAACUCAAUCUUCCUGUCCAGCCUCCCCGGUCUCAUGAGCGCUGGGUCCAGAGUGUCAGGCAACAGAGGAUUGAGCAUCA
B19: chr14:32562060:32562061:+_ENSG00000100852_ENST00000539826|hu_mus|motif|central (ssRNA)
RNA: GGGAGUUCUACAGUCCGACGAUCCUUUAUUUGUGAUUCAUUAAAUUUACGAGGAUAUGUACCAGUAGGUACGUCGGCAAAAGGACACUGCAAUUUGUUGGCCAACUGCUGACCCUGGUGCCUGAGAAUUGGUAGAUUUUUACUCAACAGAGGAUUGAGCAUCA
B20: 105239393_105239671_1208_CDS_ENSG00000142208_ENST00000407796|human|control|control (ssRNA)
RNA: GGGAGUUCUACAGUCCGACGAUCGUCCACUGCACGGCCGUAGUCAUUGUCCUCCAGCACCUCGGGGGCCAGGUACUCAGGUGUGCCGCAAAAGGUCUUCAUGGUGGCACCGUCCUUGAUCCCCUCCUUGCACAGCCCGAAGUCCAACAGAGGAUUGAGCAUCA
B21: 97243632_97244010_318_CDS_ENSG00000156467_ENST00000518406|human|control|control (ssRNA)
RNA: GGGAGUUCUACAGUCCGACGAUCGGGGUGAGAGUUUGCUUCACAGAAGCUCUUCUUGGGAUCUGGAGGGACACUCAAUGGGCUGAUCUUUUCAUCUAAGUAGGAAGCAGAGUGCAGAGCUGGAACAGCAAAGACCUCUUCAUACAACAGAGGAUUGAGCAUCA
B22: chr11:23189859:23189860:+_ENSMUSG00000020290_ENSMUST00000020538|mus_mus|motif|central (ssRNA)
RNA: GGGAGUUCUACAGUCCGACGAUCUUGAGGUAUUUCAGCUGUUAUAUGUCCACCUAAUUUGUUGACAAUAAUGGCCAUAGUACGGAGCACUUCUGGUUCUCUAGCAGCUGGUACAUUUCUCUGGUAAUCAAUAAGAACUGCAUCCAACAGAGGAUUGAGCAUCA

Each binder was assayed against T1, UNK ZnF1-3 (assay: nsRBNS (natural sequence RNA bind-n-seq); RBNS binding buffer (assumed for nsRBNS): 25 mM Tris pH 7.5, 150 mM KCl, 3 mM MgCl2, 0.01% Triton X-100, 500 ug/ml BSA, 20 U/ml SUPERase-In, 4 C; UNK is unkempt and MSI1 is Musashi-1; names of the RNAs are library labels; protein concentration not given here; high values mean tight binding).

Binder	binding signal
B1	0.258 enrichment R
B2	0.942 enrichment R
B3	0.657 enrichment R
B4	0.994 enrichment R
B5	0.534 enrichment R
B6	0.467 enrichment R
B7	0.519 enrichment R
B8	1.11 enrichment R
B9	1.38 enrichment R
B10	0.556 enrichment R
B11	1.56 enrichment R
B12	0.847 enrichment R
B13	1.69 enrichment R
B14	1.33 enrichment R
B15	0.723 enrichment R
B16	1.71 enrichment R
B17	1.11 enrichment R
B18	0.503 enrichment R
B19	0.962 enrichment R
B20	0.873 enrichment R
B21	1.51 enrichment R
B22	0.563 enrichment R
